# Measured values taken from the supplement of paper PMC7826260.
# The other results are listed elsewhere or left out. Each Rep nickase domain was tested in vitro on the same pool of single strands (1 h at 37 °C, 3 µM enzyme); the outer parts of the 90-letter strands are left off. Numbers give uncut DNA relative to the enzyme-free pool, as log2; strong cutting gives strongly negative numbers. There is no active / inactive call. Because reads are shares of a total, they shift together, so uncut sequences can rise above 0 when many others are cut.
# System: T1, Rep nickase domain of tomato golden mosaic virus
# T1 sequence (protein, residues 1-124, tag omitted): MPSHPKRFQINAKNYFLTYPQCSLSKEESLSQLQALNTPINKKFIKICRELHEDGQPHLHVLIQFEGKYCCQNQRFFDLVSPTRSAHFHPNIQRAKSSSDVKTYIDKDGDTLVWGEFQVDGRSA
# Test: uncleaved DNA left, log2 of reads against the no-enzyme library (log2 ratio); higher = less cleavage (more negative = more Rep cleavage of the k-mer); sequences stand for … in CTCGTCCG…ACCGGAGA
# Description: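 A pool of 90-nt single-stranded DNAs with seven random bases just before the constant AC of the nick site (name = the seven bases) was cut by 3 µM recombinant His6-SUMO-tagged Rep nickase domain (300 nM DNA, 50 mM HEPES pH 8.0, 50 mM NaCl, 1 mM MnCl2, 1 h, 37 °C, three replicates). Uncut DNA was amplified and sequenced.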
row,Sequence,uncleaved DNA left (log2)
1,GTAGTAT,0.185
2,CATGTGG,-0.0117
3,TTGAGTT,-0.159
4,CGATCGC,0.0013
5,TGCACGA,0.00481
6,GCCGTAG,0.135
7,CGAGAAC,-0.136
8,TCCAACA,-0.015
9,ATGCTAC,-0.188
10,TCGACAT,0.111
11,ACCGGAA,0.0299
12,TCATCCT,-0.189
13,GGGCCAT,-0.102
14,AGTCCGT,-0.00375
15,CGTGTTC,-0.0877
16,CAGACTC,-0.0339
17,GATTTTA,0.0462
18,GCCGGCG,0.162
19,GGTGTTC,-0.128
20,AACCGGT,-0.0965

row,Sequence,uncleaved DNA left (log2)
1,AAGATCC,0.00708
2,GCTTCCG,-0.046
3,CTTGGCT,-0.0942
4,TTCCAGG,-0.0585
5,CGGATGG,-0.192
6,CATGCCA,-0.0471
7,AATAATT,-0.0473
8,GTAAGTG,0.0516
9,CTTTCTA,-0.11
10,GCCCGCA,-0.109
11,GAATATT,-2.88
12,GTGAGAG,0.0554
13,TGGAGGC,0.0149
14,GTGACTA,0.0814
15,CGACATC,0.085
16,GGTATAT,0.183
17,GACGACA,0.0316
18,GACAAGA,-0.00855
19,AGTATTT,0.0388
20,ATGGTAA,0.0206
